Among all 52,000 compounds or so, about 4,300 (8.3%) were called active. No stated cut-off is given here; in the data, active means survival mostly below about 52% (no sharp cut-off); inactive means mostly above about 56%. This is one part of the list.

The assay relates to DeltatarO mutant. Put plainly: S. aureus survival, RN4220 and DeltatarO strains – OD600, teichoic acid synthesis inhibitors, primary screen (AID 463173). The following applies: S. aureus RN4220 wild type/DeltatarO growth, OD600, 18 h, hits give low values, screened at 18.75 µg/mL (by protocol).
`O=C(COc1ccc(Cl)cc1)NCCc1csc(-c2ccc(F)cc2)n1`: the survival is inactive: 77%. With `CC1Cc2cc(S(=O)(=O)N(C)c3ccc(Br)cc3)ccc2N1C(=O)C1CC1` (stereo not given) the figure was inactive: 94%; with `Fc1ccc(Cc2cn3cc(-c4ccc(Cl)cc4)nc3s2)cc1`, inactive: 78%.

For `CCC1CCCCN1CCCNC(=O)c1cc2c(=O)n(CC)c3ccccc3c2s1` (stereo not given), the survival is inactive: 114%. The value for `COc1ccc(NC(=O)C2CCCN(S(=O)(=O)c3cccs3)C2)cc1` (stereo not given) was inactive: 96%; that for `COc1ccc(CNC(=O)C2CCN(S(=O)(=O)c3ccc(C)cc3)CC2)cc1` was active: 56%.

On to `O=c1[nH]c(O)c(C=NCCCn2ccnc2)c(=O)[nH]1`, for which the survival is inactive: 103%. `CCN1CCN(C(c2ccccc2)c2c(O)cc(C)n(Cc3ccco3)c2=O)CC1` (stereo not given): the survival is inactive: 94%. With `COc1cc2ccccc2cc1C(=O)Nc1ccc2oc(-c3ccccc3)nc2c1` the figure was active: 8%. In the case of `CCOc1ccccc1C(=O)N(Cc1cccs1)c1ccc(Cl)cc1`, the survival is inactive: 62%.

Regarding `Cc1ccc(Nc2cc(C(=O)NCc3cccs3)c3ccccc3n2)c(C)c1`, the survival was inactive: 72%. In the case of `Cc1ccc(NC(=O)Cc2coc3c(C)c(C)ccc23)cc1Cl`, the survival is inactive: 80%. Turning to `CC1(C)CC(=O)C2=C(C1)Nc1ccccc1N1C(=O)c3ccccc3C21` (stereo not given), the survival was inactive: 70%. For the compound `Cc1ccc(NC(=O)c2ccc3[nH]c(C)cc(=O)c3c2)c(C)c1`, the survival was inactive: 85%. For `COc1ccc(Nc2ncc3c(n2)CCN(C(=O)OC(C)(C)C)C3)cc1`, the survival is inactive: 65%. On to `COc1ccccc1CN1CCN(C2CCN(C(=O)NC(C)C)CC2)C(=O)C1=O`, for which the survival was inactive: 94%. For the compound `CC1CCN(S(=O)(=O)c2ccc3c(c2)N(CC(=O)N2CCN(c4ccccc4)CC2)C(=O)CO3)CC1`, the survival is inactive: 81%.

`COc1ccccc1C(=O)Nc1nc2nc(C)c(Cc3ccccc3)c(=O)n2[nH]1`: the survival was inactive: 111%. Regarding `CCSc1nc(Cl)c2ccccc2n1`, the survival was inactive: 69%. On to `CC(=O)c1ccc(NC(=O)Cn2ncc3c(C)n(Cc4ccc(F)cc4)c(C)c3c2=O)cc1`, for which the survival was active: 60%. Take `CCN(CC)N=Nc1ccc(C(=O)O)cc1`: the survival was inactive: 77%. The value for `COc1cccc(Cn2c(CNS(=O)(=O)c3ccc4c(c3)CCCC4)nc3cccnc32)c1` was inactive: 87%; that for `CCc1ccc2c(c1)-c1ccccc1S(=O)(=O)N2CC(=O)N1CCC(C)CC1` was inactive: 78%. For `CC(C)Cc1nnc(NC(=O)c2ccccc2)s1`, the survival was inactive: 76%.

As to `Cc1cc(O)c(-c2ccnc3cc(-c4ccccc4)nn23)cc1Cl`, the survival is inactive: 114%. As for `COc1cc2c(C(=O)N(C)c3cc(Cl)ccc3OC)cn(CC(C)C)c(=O)c2cc1OC`, the survival was active: 48%.

As to `CCN(C(=O)Cn1c(=O)n(CC2CCC(C(=O)NC)CC2)c(=O)c2sccc21)c1ccccc1` (stereo not given), the survival was inactive: 81%. On to `Cc1nn(CCCC(=O)Nc2cccc(F)c2)c(=O)c2c1sc1ccccc12`, for which the survival is inactive: 54%. For `S=C(Nc1ccccc1)NC1CC2CCCC(C1)N2C1CC1` (stereo not given), the survival was inactive: 77%. The value for `COc1ccc(NC(=O)CN2C(=O)CCc3cc(S(=O)(=O)N4CCOCC4)ccc32)cc1Cl` was inactive: 86%; that for `CC(=O)N(C)c1ccc(N=Nc2c(-c3ccccc3)[nH][nH]c2=O)cc1` was inactive: 76%; that for `COc1ccc(Cl)cc1NC(=O)N1CC(=O)Nc2sc3c(c2C1c1ccccc1)CCCC3` (stereo not given) was inactive: 76%. With `COc1ccccc1NC(=O)CSC1=Nc2ccccc2N=C(c2ccc(F)cc2)C1`, the survival was inactive: 89%.

For `Cc1cccc(-n2c3nc(=O)[nH]c(=O)c-3cc3c(C)nn(-c4ccccc4)c32)c1C`, the survival was inactive: 83%.

Take `CC(C)NC(=O)/C=C/c1ccc2c(c1)OCO2`: the survival is inactive: 95%. For `O=C(Nc1ccccc1)c1cn(-c2ccccc2)nc1-c1ccccc1`, the survival is inactive: 85%. Regarding `Cc1cccc(C)c1NC(=O)CSCc1cnn(-c2ccccc2)c1-n1cccc1`, the survival was inactive: 54%. For `COc1ccccc1Cn1c(CNS(=O)(=O)c2cccc([N+](=O)[O-])c2)nc2cccnc21`, the survival was inactive: 81%. With `CCC(Sc1nc2ccccc2c2nc(CCc3c(C)n[nH]c3C)nn12)C(=O)Nc1ccccc1F` (stereo not given) the figure was inactive: 86%; with `COc1ccc(C)cc1NC(=O)CCn1nc(C)cc1C`, inactive: 112%; with `COc1cc(CNc2ccc3[nH]c(=O)[nH]c3c2)cc(Cl)c1OCc1ccccc1F`, inactive: 78%.

Take `Cc1ccc(-c2nonc2NC(=O)c2ccco2)cc1C`: the survival was inactive: 90%. For `Cc1oc(C)c2c(=O)cc(-c3ccc4c(c3)OCO4)cc(OC(=O)c3ccc(Cl)cc3)c12`, the survival was inactive: 103%. With `Cc1ccc(-c2nn(CC(=O)Nc3cccc(C(F)(F)F)c3)c(=O)c3ccccc23)cc1` the figure was active: 31%; with `Cc1ccc(CNC(=O)c2ccc3c(c2)N(Cc2cccc(C)c2)C(=O)CS3)cc1`, active: 46%. With `O=C(O)C1C2C=CC(C2)C1C(=O)NCCCN1CCOCC1` (stereo not given) the figure was inactive: 117%. For the compound `CC1CCN(CC(C)OC(=O)c2ccc3c(c2)OCCO3)CC1` (stereo not given), the survival was inactive: 99%. For the compound `O=C(CN1CCCC1)Nc1nc(-c2ccc3c(c2)CCN3C(=O)C2CC2)cs1`, the survival was inactive: 104%. Turning to `COc1ccc(CNC(=O)c2cc3cccc(OC)c3oc2=O)cc1`, the survival is inactive: 65%. In the case of `CCN(CC)C(=O)C1=C(C)Nc2nc3ccccc3n2C1c1cccc(Cl)c1` (stereo not given), the survival is inactive: 65%. With `COC(=O)c1ccc(NC(=O)CSc2n[nH]c(CC(C)C)n2)cc1`, the survival is active: 36%. Take `Cc1cccc(OC(=O)c2cc(-c3ccc(Cl)cc3)on2)c1C`: the survival is inactive: 106%. Turning to `N#Cc1c(N)nc(SCC(=O)c2cc3ccccc3oc2=O)c(C#N)c1-c1ccc(O)cc1`, the survival was inactive: 90%. As for `COc1ccc(CNC(=O)c2cc(C)nc3c2c(C)nn3-c2cccc(Cl)c2C)cc1`, the survival was inactive: 88%. Take `COc1cccc(NC(=O)C(CCSC)NC(=O)C2CCC(C)CC2)c1` (stereo not given): the survival is inactive: 73%. Regarding `CC(C)CN(CCCNC(=O)c1cn(C)c2ccc(S(=O)(=O)N(C)C3CCCCC3)cc2c1=O)CC(C)C`, the survival was inactive: 104%. For the compound `Nc1nc2c(c(=O)[nH]1)CCC2`, the survival was inactive: 71%. Take `CCn1cc(C(=O)N2CCN(c3ccc(OC)cc3)CC2)c(=O)c2cc(S(=O)(=O)N(C)C3CCCCC3)ccc21`: the survival is inactive: 122%. The value for `COc1cccc(CNC(=O)c2nn(C)c3c2CS(=O)(=O)c2ccccc2-3)c1` was inactive: 74%; that for `c1cc(CNc2ccc3c(c2)OCCO3)ccn1` was inactive: 100%. With `COc1ccc(NC(=O)CSC2=Nc3ccccc3C3=NC(CCC(=O)NCCc4ccccc4)C(=O)N23)c(OC)c1` (stereo not given), the survival was inactive: 89%. Regarding `O=C(NCc1ccco1)c1ccc2c(c1)N(Cc1ccccc1F)C(=O)c1ccccc1S2=O` (stereo not given), the survival is inactive: 90%.

As to `CCOC(=O)c1c(NC(=O)Cn2nnc3ccccc32)sc2c1CCC(C)C2` (stereo not given), the survival was inactive: 64%. Turning to `Cc1nn(CC(=O)Nc2cccc(C(F)(F)F)c2)c(=O)c2nn(-c3ccccc3)c(C)c12`, the survival is inactive: 75%. The value for `CC(C)CSc1oc(-c2ccco2)nc1S(=O)(=O)c1ccc(Br)cc1` was active: 33%; that for `CCOc1ccc(-n2c(=O)c3c(C)c(C)sc3n(Cc3cc(=O)n4cc(Cl)ccc4n3)c2=O)cc1` was inactive: 69%; that for `CN(C(=O)CSc1nc2ccccc2n1Cc1cccc(C(F)(F)F)c1)c1ccccc1` was inactive: 66%. Consider `O=C(COC(=O)c1cc(-c2ccccc2)nc2c(Cl)cccc12)c1ccc(F)cc1`, for which the survival is inactive: 74%. Consider `O=C(NCCc1csc(-c2ccc(F)cc2)n1)c1c(F)cccc1Cl`, for which the survival is inactive: 122%. As to `COc1ccc(C)cc1NC(=O)CC(=O)Nc1ccc2nc3n(c(=O)c2c1)CCCCC3`, the survival was inactive: 89%. Consider `CC1(C)NC(=O)N(CC(O)CN(Cc2ccccc2)Cc2ccccc2)C1=O` (stereo not given), for which the survival was inactive: 89%. Turning to `CCOc1ccc(S(=O)(=O)N(C(=O)c2ccncc2)c2ccc3oc(C)c(C(=O)OC)c3c2)cc1`, the survival is inactive: 168%. Take `CCOc1ccc(C2=CC(c3cc(Br)ccc3F)n3ncnc3N2)cc1Cl` (stereo not given): the survival is inactive: 76%. In the case of `COc1ccc(-c2noc(CSc3nnc(C)n3-c3ccc(F)cc3)n2)cc1`, the survival was inactive: 53%. `COc1ccc(NC(=O)C(c2ccccc2)N(C)C(=O)/C=C\c2ccc3c(c2)OCO3)cc1` (stereo not given): the survival is inactive: 65%. `Cc1cn2c(=O)c(S(=O)(=O)Nc3ccc(OC(F)(F)F)cc3)c(C)nc2s1`: the survival was inactive: 109%. As to `CCOc1ccc(C(=O)Nc2ccc3nc(Nc4cccc(C(F)(F)F)c4)cc(C)c3c2)cc1OCC`, the survival was inactive: 83%.

For `COc1ccc(C(CC(=O)Nc2cc(Cl)c(OC)cc2OC)N2Cc3ccccc3C2=O)cc1` (stereo not given), the survival was active: 0%.

For `COc1ccc(-c2c(C)nn3c(C(F)(F)F)cc(-c4ccc(C)cc4)nc23)cc1`, the survival was inactive: 82%. With `O=C(COc1ccc(S(=O)(=O)NCc2ccccc2)cc1Cl)N1CCOCC1` the figure was inactive: 78%; with `COc1ccc(CNC(=O)Cn2c(=O)n3nc(-c4ccc(OC)cc4)nc3c3ccccc32)cc1`, inactive: 67%. Regarding `CC(=O)c1cccc(NS(=O)(=O)c2ccc3[nH]c4c(c3c2)CCCCC4)c1`, the survival was inactive: 87%. With `C=CCNC(=S)/N=c1\sccn1C`, the survival is inactive: 96%. Regarding `Cc1ccccc1NS(=O)(=O)c1ccc2[nH]cc(C(=O)NCCc3ccccc3)c(=O)c2c1`, the survival was inactive: 95%. With `Cc1ccc2cc(C#N)c(SCC(=O)Nc3ccccc3N3CCOCC3)nc2c1C` the figure was inactive: 83%; with `Cc1ccccc1OCC(=O)Nc1c(C(=O)Nc2ccccc2F)oc2ccccc12`, inactive: 130%. Regarding `CCOc1ccc(NC(=O)N2CC3CCCN3c3ccccc32)cc1` (stereo not given), the survival is inactive: 91%. Regarding `CC(=O)NNc1ncnc2c1cnn2-c1ccccc1`, the survival was active: 46%.

Take `Cc1ccc(F)cc1NC(=O)CSc1nc(-c2cccs2)cc(C(F)(F)F)n1`: the survival was inactive: 68%.

For the compound `CCOc1ccc(NC(=O)C(CC)n2nc(C)c3c(C)n(-c4ccccc4)nc3c2=O)cc1` (stereo not given), the survival is inactive: 92%.
